Reference: PubChem BioAssay AID1345082 (National Center for Advancing Translational Sciences (NCATS), 2018)
Screen size: about 94,000 compounds; about 4,000 (4.3%) were called active. The shares of active, inactive and inconclusive entries below differ from those in the screen. The call rests on the fitted dose curve; in most records, active means well fitted inhibition curve with a large enough effect; inconclusive means small, poorly fitted or top-dose-only effect; inactive means no such curve, though single readings can be large or run the other way. Potencies beside an inconclusive call are fits to weak or partial responses and may not hold up.
Potency means the concentration at half of the fitted maximal effect; tags describe the fitted curve by direction and shape.

Test: Cytotoxic Profiling in NIH 3T3 Cell Line of Diverse Libraries Using Quantitative High-Throughput Screening; further: nearly all actives have a fitted effect of over 55% in size
Details: NIH 3T3 viability, CellTiter-Glo ATP luminescence, 48-72 h; series mostly up to 96.7 µM
Summary of the method: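 First NIH 3T3 cells are plated at 400 cells/well; next compound is pinned in; then plates incubate 48 or 72 hr at 37 °C; finally CellTiter-Glo is added and luminescence read after 10 min.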
With `O=C(O)c1ccc(CN2Cc3[nH]cnc3C[C@H]2C(=O)NCc2ccco2)cc1` the Potency was “inactive”.
For `COc1cccc(C(=O)N2CCC(Cc3nc(C(C)C)no3)CC2)c1`, the Potency was inconclusive: 35.5 µM [inhibitor, partial curve, poor fit].
For `CNC(=O)c1ccc2c(c1)n(Cc1ccc(OC)cc1)c(=O)c1ccnn12`, the Potency was inconclusive: 50.1 µM [inhibitor, partial curve, poor fit].
For `COc1ccc(-c2nccc3c(=O)cc(N4CCOCC4)oc23)cc1OC`, the Potency was active: 10 µM.
With `O=C(Nc1cccc(F)c1)N1CC(Oc2ccc(-c3noc(C4CCOCC4)n3)cc2)C1` the Potency was inconclusive: 50.1 µM [inhibitor, partial curve, poor fit].
For `Cc1nn2c(c1-c1ccccc1[S+](C)(=O)[O-])N(Cc1ccccc1)CCC2`, the Potency was active: 10 µM.
With `O=C(c1cc2n(n1)CC(c1ccc(Cl)cc1)OC2)N1CCN(c2ccc(F)cc2)CC1` (stereo not drawn) the Potency was inconclusive: 50.1 µM [inhibitor, partial curve, poor fit].
For `COc1ccc(CN2CCc3nc(N4CCN(C)CC4)[nH]c(=O)c3CC2)cc1OC`, the Potency was “inactive”.
In the case of `Cc1ncsc1C1N(C2CCNCC2)C(=O)C12CCCC2` (stereo not drawn), the Potency was “inactive”.
With `Cn1ncc2c(C(=O)NC3CCCCCC3)cc(C(C)(C)C)nc21` the Potency was inconclusive: 20 µM [inhibitor, full curve, poor fit].
For `CCOC(=O)[C@@H]1[C@@H](OC)C(=O)N(Cc2ccccc2)C12CCN(C(=O)CC)CC2`, the Potency was inconclusive: 70.8 µM [inhibitor, single point].
In the case of `O=C(CCC1CCCC1)NCCc1noc(-c2ccccc2)n1`, the Potency was inconclusive: 50.1 µM [inhibitor, partial curve, poor fit].
In the case of `Cc1nn(C)c2ncnc(N3CCCC(Cc4nc5ccccc5[nH]4)C3)c12` (stereo not drawn), the Potency was inconclusive: 39.8 µM [inhibitor, full curve].
In the case of `CCc1ccccc1NC(=O)N1C[C@@H](F)C[C@H]1C(=O)N1CCCCC1`, the Potency was “inactive”.
With `Cn1cnnc1CC1CCCN(C(=O)Nc2ccccc2)C1` (stereo not drawn) the Potency was “inactive”.
With `COc1cccc(CNC(=O)CNC(=O)c2cccc(-c3ccc(SC)cc3)c2)c1` the Potency was “inactive”.
In the case of `CCc1noc(-c2cccc(-n3ccnc3-c3cc4n(n3)CCCNC4)c2)n1`, the Potency was “inactive”.
In the case of `FC(F)(F)c1ccccc1CN1CCC2(CC1)CC(c1ccccc1)=NO2`, the Potency was inconclusive: 39.8 µM [inhibitor, partial curve].
In the case of `COc1cccc(CN2CCCC3(CCN(C(=O)c4ccc(OC)nc4OC)C3)C2)c1` (stereo not drawn), the Potency was inconclusive: 79.4 µM [inhibitor, single point].
With `Cc1nnc2ccc(N3CCC(NC(=O)c4cccc(Cl)c4)C3)nn12` (stereo not drawn) the Potency was inconclusive: 50.1 µM [inhibitor, partial curve, poor fit].
With `Cc1nnc(-c2cc(-c3cccc(O)c3)ccn2)n1-c1ccccc1` the Potency was inconclusive: 56.2 µM [inhibitor, partial curve, poor fit].
With `Cc1ccc(C2NC(=O)N(CC(=O)NC(C)(C)C)C3=C2C(=O)OC3)cc1` (stereo not drawn) the Potency was “inactive”.
In the case of `COc1cccc(CNC(=O)c2cc(-c3ccccc3)nc3c2cnn3C)c1`, the Potency was inconclusive: 50.1 µM [inhibitor, partial curve, poor fit].
For `CC(C)N1C(=O)C2(CCCC2)C1C(=O)NCCCN1CCc2ccccc2C1` (stereo not drawn), the Potency was “inactive”.
In the case of `Cc1ccccc1OCc1nc(C2CN(C(=O)Cc3c[nH]c4ccccc34)C2)no1`, the Potency was inconclusive: 50.1 µM [inhibitor, partial curve, poor fit].
For `COc1cc(CN2CCN(c3cc(C)nc(N)n3)CC2CCO)cc(OC)c1` (stereo not drawn), the Potency was “inactive”.
In the case of `COc1ccccc1CN1CCCc2nc(C)nc(-c3ccc(O)cc3)c2C1`, the Potency was inconclusive: 50.1 µM [inhibitor, partial curve, poor fit].
With `Cc1ccc([S+](=O)([O-])c2nnn3c2nc(N2CCC(F)CC2)c2ccccc23)cc1C` the Potency was “inactive”.
For `O=C(NCc1cccs1)c1ccc2nnc(-c3cccc(C(F)(F)F)c3)n2c1`, the Potency was inconclusive: 44.7 µM [inhibitor, partial curve, poor fit].
In the case of `COCCCNC(=O)CNC(=O)c1ccc(-c2cccc(C(F)(F)F)c2)cc1`, the Potency was inconclusive: 15.8 µM [inhibitor, full curve].
For `COCC(=O)N[C@H]1C[C@@H](Cc2cc(CN(C)c3ccccc3)on2)C1(C)C`, the Potency was inconclusive: 79.4 µM [inhibitor, partial curve, poor fit].
For `CC1CCCC(C)N1C(=O)c1ccc2nc(-c3ccnc(Cl)c3)oc2c1` (stereo not drawn), the Potency was inconclusive: 31.6 µM [inhibitor, partial curve].
For `COC(=O)CNC(=O)c1nc(-c2cccnc2)c2ccccn12`, the Potency was “inactive”.
In the case of `CC(C)N1C(=O)C(CC(=O)N(C)Cc2cccnc2)=C2CCCCC21` (stereo not drawn), the Potency was “inactive”.
In the case of `Cc1cc(C)cc(-c2ccc(CN3CCCC(NC(=O)c4ccccc4Cl)C3)cc2)c1` (stereo not drawn), the Potency was inconclusive: 44.7 µM [inhibitor, partial curve, poor fit].
In the case of `CN(Cc1ccccc1)c1ccc2nnc(-c3ccccn3)n2n1`, the Potency was active: 44.7 µM.
In the case of `COc1cccc(CN2CCc3c(cc(C(=O)Nc4cccc(C)c4C)n3C)C2)c1`, the Potency was inconclusive: 44.7 µM [inhibitor, partial curve, poor fit].
For `COc1cc(C(=O)NC2CCN(c3cc(-c4ccc(F)cc4)[nH]n3)C2)cc(OC)c1OC` (stereo not drawn), the Potency was inconclusive: 70.8 µM [inhibitor, partial curve, poor fit].
With `O=C1NC2(CCCN([S+](=O)([O-])c3cccs3)C2)Oc2ccccc21` (stereo not drawn) the Potency was inconclusive: 50.1 µM [inhibitor, partial curve, poor fit].
In the case of `CCN1CCN(C(=O)C2CCc3nnc(-c4cccc(C(F)(F)F)c4)n32)CC1` (stereo not drawn), the Potency was “inactive”.
In the case of `COc1ccc2[nH]c3c(c2c1)CCN(C)C31CCN(C(=O)c2cc(C)nn2C)CC1`, the Potency was “inactive”.
With `COCc1ncc(CN2CC[C@@H](c3ccc4ccccc4c3)[C@H](O)C2)cn1` the Potency was “inactive”.
In the case of `CNC(=O)CNC(=O)N1CCC(=O)N(C)c2ccccc2C(OC)C1` (stereo not drawn), the Potency was inconclusive: 31.6 µM [inhibitor, partial curve].
